Experimental data: the supplement of paper PMC10126150
Values marked as one replicate rest on one cluster of the flow cell; about a third of the high ones do not repeat.

System: ATP
Assay: switch fluorescence ratio, 500 uM ATP over buffer (Cy3 cluster intensity, sum of 5 cycles each) (fold (ratio)); higher = stronger signal-on switching upon ATP binding; sequences stand for … in TCGTCGGCAGCGTCAGATGTGTATAAGAGACAGTTTTTTTTTTTTTTTTTTTTTTTTT…TC
Conditions: aptamer strand: ATP DNA aptamer (quencher-CACCTGGGGGAGTATTGCGGAGGAAGG + anchor), 100 nM annealed; ATP concentration: 500 uM; one replicate
Summary of the method: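 Clusters carrying Cy3-labelled switching strands on a modified Illumina MiSeq flow-cell were annealed to 100 nM quencher-labelled ATP aptamer and imaged in selection buffer. They were imaged again after 15 min with 500 uM ATP at 22 °C, over five buffer/ATP cycles with NaOH stripping and re-annealing in between. For each cluster, the fluorescence ratio is the summed Cy3 intensity of the target cycles divided by that of the buffer cycles, averaged per switch-domain sequence. Clusters outside 100-1000 RFU were left out.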
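Also: ATP exposure 15 min at 22 °C before imaging.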

## GTATCGATTC
  switch fluorescence ratio: 1.01

## CACAACCGGA
  switch fluorescence ratio: 0.977

## CGTTTCCGG
  switch fluorescence ratio: 0.951

## AGTCATGCGC
  switch fluorescence ratio: 1.06

## GGCGACATCG
  switch fluorescence ratio: 0.98

## TCTCGATCGG
  switch fluorescence ratio: 1.03

## CCCGCGCGTG
  switch fluorescence ratio: 1.04

## TGCTGTAGTT
  switch fluorescence ratio: 0.971

## TATCTATTAT
  switch fluorescence ratio: 1.01

## CTCGAAATGT
  switch fluorescence ratio: 1.08

## TGTCGGTCCG
  switch fluorescence ratio: 1.01

## GTGGTTATAT
  switch fluorescence ratio: 1.03

## TGGAAAGGCA
  switch fluorescence ratio: 0.956

## TTCCGTGGCA
  switch fluorescence ratio: 1.59

## AGTCAAGTGA
  switch fluorescence ratio: 1.02

## CGTCCCACGC
  switch fluorescence ratio: 1.23

## GCTTATAGCT
  switch fluorescence ratio: 0.982

## ACGTAAGTCG
  switch fluorescence ratio: 1.02

## CGCGCGTTTC
  switch fluorescence ratio: 0.968

## TCTGACCTTG
  switch fluorescence ratio: 0.985

## GATGTGTGG
  switch fluorescence ratio: 1.01

## GGGGACCTCA
  switch fluorescence ratio: 1.06

## TAATCGACGG
  switch fluorescence ratio: 0.982

## CACCCACAGT
  switch fluorescence ratio: 1.53

## GGGACGAAGT
  switch fluorescence ratio: 0.95

## CCAAAAGTAA
  switch fluorescence ratio: 1.64

## TCCTTAAGTA
  switch fluorescence ratio: 1.03

## AGATTCAAA
  switch fluorescence ratio: 0.987

## TTATCCCTT
  switch fluorescence ratio: 1.05

## TCGTGCGCCA
  switch fluorescence ratio: 1.11

## CCCGCTTCTA
  switch fluorescence ratio: 1.29

## AGGCCCATTA
  switch fluorescence ratio: 0.981

## CCTGAGCCCA
  switch fluorescence ratio: 1.15

## AGTTTGTAAA
  switch fluorescence ratio: 0.986

## GGGGTAACTA
  switch fluorescence ratio: 1.04

## AGATTATTGG
  switch fluorescence ratio: 0.978

## CTTTGAATAC
  switch fluorescence ratio: 2.35

## AGTAGGTATC
  switch fluorescence ratio: 0.989

## AAAATTATGC
  switch fluorescence ratio: 1.03

## GGACAAGTGG
  switch fluorescence ratio: 1.28

## CAATGCTTA
  switch fluorescence ratio: 0.981

## TGCATCCGCC
  switch fluorescence ratio: 1.7

## GCTGCTTTAT
  switch fluorescence ratio: 0.972

## TTTTGTCTGG
  switch fluorescence ratio: 1.06

## TCGCCCAGAG
  switch fluorescence ratio: 1.82

## AGCAACCCCA
  switch fluorescence ratio: 1.76

## GACCCGATCA
  switch fluorescence ratio: 1.04

## TCGAATGGGA
  switch fluorescence ratio: 1.03

## GGTAAACGGG
  switch fluorescence ratio: 0.974

## AACATTGCAG
  switch fluorescence ratio: 1.04

## CTTTAAATCA
  switch fluorescence ratio: 0.979

## AAATGGGTC
  switch fluorescence ratio: 0.986

## AATTACGCCG
  switch fluorescence ratio: 1.06

## ACTTCCTTTA
  switch fluorescence ratio: 1.71

## ATTGGTATCC
  switch fluorescence ratio: 0.978

## CCAAGGTACG
  switch fluorescence ratio: 1.06

## TATTGTTTAA
  switch fluorescence ratio: 0.991

## AGAGCTTCG
  switch fluorescence ratio: 1.03

## TTTTAAAATC
  switch fluorescence ratio: 0.98

## GAATACCGTC
  switch fluorescence ratio: 1.04

## GTGCTCTTTT
  switch fluorescence ratio: 1

## GGCAGCCT
  switch fluorescence ratio: 1.03

## AAGTACGAGA
  switch fluorescence ratio: 1.26

## GGTTAATGT
  switch fluorescence ratio: 0.994

## GTTACCGGGA
  switch fluorescence ratio: 1.03

## GGTTCATATG
  switch fluorescence ratio: 1.04

## GCAACCTTAG
  switch fluorescence ratio: 1.17

## AATGGTGAGC
  switch fluorescence ratio: 1.01

## ACACAGGACG
  switch fluorescence ratio: 1.1

## CTGTATTCCA
  switch fluorescence ratio: 1.01

## GTGCGGCAGA
  switch fluorescence ratio: 1.07

## ACTGCGGA
  switch fluorescence ratio: 1.07

## GATATGACAA
  switch fluorescence ratio: 0.993

## TTATGTTCGG
  switch fluorescence ratio: 0.935

## GGGCGAAAGT
  switch fluorescence ratio: 0.992

## ATTTATAAAC
  switch fluorescence ratio: 0.966

## GTGGACATTT
  switch fluorescence ratio: 1.02

## CTGTCGTTCC
  switch fluorescence ratio: 1.24

## TGTCGTATAA
  switch fluorescence ratio: 1.02

## GCAAGGGCGA
  switch fluorescence ratio: 1.01

## CGCGTTTAGC
  switch fluorescence ratio: 1.05

## CTTAATGTAT
  switch fluorescence ratio: 1.04

## ATTTGAGGAG
  switch fluorescence ratio: 1

## TCGCTGGTGT
  switch fluorescence ratio: 1.05

## GGGCACACTT
  switch fluorescence ratio: 1.01

## TCGCCAATTC
  switch fluorescence ratio: 3.46

## ATCGATAAAC
  switch fluorescence ratio: 1.01

## GGGGCCTCGA
  switch fluorescence ratio: 0.96

## TCCTTTCTCA
  switch fluorescence ratio: 1.26

## CCTCAGGTAG
  switch fluorescence ratio: 2.14

## CACAGTCAGT
  switch fluorescence ratio: 1.08

## CAGGAGGAAA
  switch fluorescence ratio: 0.97

## ACATTTCAGA
  switch fluorescence ratio: 1

## ATACGCGTTT
  switch fluorescence ratio: 1.05

## TCTTTCCGGC
  switch fluorescence ratio: 0.999

## GCAGCATGAT
  switch fluorescence ratio: 1.22

## AGCAGATGAA
  switch fluorescence ratio: 0.999

## AAGAGAAAA
  switch fluorescence ratio: 0.967

## AGGGTCAAGT
  switch fluorescence ratio: 0.998

## TTGACGCGGT
  switch fluorescence ratio: 1.34

## TTATATGCCA
  switch fluorescence ratio: 0.978

## CCGGAATTGT
  switch fluorescence ratio: 1.1

## AACGGCC
  switch fluorescence ratio: 1.05

## TTTCACCAGC
  switch fluorescence ratio: 1.01

## ATTCCTGCTC
  switch fluorescence ratio: 1.08

## TCAGGGCTCC
  switch fluorescence ratio: 1.04

## CACTGCGTCG
  switch fluorescence ratio: 0.995

## GTAGGTTTGC
  switch fluorescence ratio: 0.993

## GAGGCTTTGT
  switch fluorescence ratio: 0.991

## TTGCCCAACG
  switch fluorescence ratio: 1

## TGGTCGTACT
  switch fluorescence ratio: 1.02

## TTGCTACGC
  switch fluorescence ratio: 1.22

## GCTTTTCTTA
  switch fluorescence ratio: 0.998

## TTTACTACCG
  switch fluorescence ratio: 1.4

## GATACGTGTG
  switch fluorescence ratio: 0.962

## CTAGTCCCCG
  switch fluorescence ratio: 1.01

## TTCCTTCTCC
  switch fluorescence ratio: 1.39

## CGTTCAATTG
  switch fluorescence ratio: 0.988

## CTTCGAATCA
  switch fluorescence ratio: 1

## GGGTTACATT
  switch fluorescence ratio: 1.02

## CGGGGCAGTC
  switch fluorescence ratio: 0.976

## AGGCAGAGAC
  switch fluorescence ratio: 1.08

## AGTTTACTTC
  switch fluorescence ratio: 1.01

## TTTAGTTATC
  switch fluorescence ratio: 1.03

## CCTGCTACAG
  switch fluorescence ratio: 1.1

## GCATCTCGGC
  switch fluorescence ratio: 0.989

## GGGTGCAGGA
  switch fluorescence ratio: 0.898

## AGGACGTGAC
  switch fluorescence ratio: 1.39

## ACCGATCCCC
  switch fluorescence ratio: 1.19

## CTTATGCTGA
  switch fluorescence ratio: 1.04

## GGACCATAGA
  switch fluorescence ratio: 1.01

## CGACAAGGGG
  switch fluorescence ratio: 1.05

## TTGTATAAAT
  switch fluorescence ratio: 0.964

## GACCCGGGGT
  switch fluorescence ratio: 0.925

## GGTACCTCGA
  switch fluorescence ratio: 1

## ATTTGAGCCC
  switch fluorescence ratio: 1.01

## TACCCTAGGC
  switch fluorescence ratio: 1.1

## GCAGCGATGG
  switch fluorescence ratio: 4.26

## TGCTAGTTGC
  switch fluorescence ratio: 0.994

## CATCGGCCG
  switch fluorescence ratio: 0.962

## GTTGGATCTG
  switch fluorescence ratio: 1.02

## TTGCGCTGGC
  switch fluorescence ratio: 1.13

## CCAGTCAATT
  switch fluorescence ratio: 1.16

## CGGTTGCGCT
  switch fluorescence ratio: 0.987

## TCATGGACAT
  switch fluorescence ratio: 1.01

## ACATTCCCGT
  switch fluorescence ratio: 1.12

## TTATGCGATC
  switch fluorescence ratio: 1.09

## TAATAGCGCT
  switch fluorescence ratio: 0.984

## TTATGCTCTA
  switch fluorescence ratio: 0.988

## CCCGGGCAGA
  switch fluorescence ratio: 0.99

## ACGCTAAATC
  switch fluorescence ratio: 1.44

## TCGGGCTCTA
  switch fluorescence ratio: 1.03

## ATCGCTCACG
  switch fluorescence ratio: 1.06

## GGTGGAGCGA
  switch fluorescence ratio: 1.04

## CCCACTGGTT
  switch fluorescence ratio: 1.54

## GGATTTCCCT
  switch fluorescence ratio: 0.968

## CTCCCCAGCA
  switch fluorescence ratio: 1.59
